The values that follow come from PubChem BioAssay AID488969 (Vanderbilt High Throughput Screening Facility, 2010).

Structures are written as SMILES. The full ranking holds about 110,000 compounds; the median of “z-score” is about -0.1, and the highest 2% start at about 2. The list shows a part of the results. Active and inactive are the calls of the source.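 The calls were made as follows: active = z-score in the third read window above 3 or below -3; inactive = the rest.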

The target of the assay is Metabotropic glutamate receptor 8 (Rattus norvegicus) (UniProt P70579). The experiment in a line: rat mGluR8 modulators via GIRK flux, primary screen, cell-based, thallium flux, HTS (AID 488969). As to conditions: HEK293 rat mGluR8, GIRK (G protein-gated inwardly rectifying potassium channel) thallium flux, FluoZin2; at 10 µM; stronger effect = higher value; submaximal glutamate (EC20) added with thallium.
Sequence of UniProt P70579 (P70579 whole entry, looked up): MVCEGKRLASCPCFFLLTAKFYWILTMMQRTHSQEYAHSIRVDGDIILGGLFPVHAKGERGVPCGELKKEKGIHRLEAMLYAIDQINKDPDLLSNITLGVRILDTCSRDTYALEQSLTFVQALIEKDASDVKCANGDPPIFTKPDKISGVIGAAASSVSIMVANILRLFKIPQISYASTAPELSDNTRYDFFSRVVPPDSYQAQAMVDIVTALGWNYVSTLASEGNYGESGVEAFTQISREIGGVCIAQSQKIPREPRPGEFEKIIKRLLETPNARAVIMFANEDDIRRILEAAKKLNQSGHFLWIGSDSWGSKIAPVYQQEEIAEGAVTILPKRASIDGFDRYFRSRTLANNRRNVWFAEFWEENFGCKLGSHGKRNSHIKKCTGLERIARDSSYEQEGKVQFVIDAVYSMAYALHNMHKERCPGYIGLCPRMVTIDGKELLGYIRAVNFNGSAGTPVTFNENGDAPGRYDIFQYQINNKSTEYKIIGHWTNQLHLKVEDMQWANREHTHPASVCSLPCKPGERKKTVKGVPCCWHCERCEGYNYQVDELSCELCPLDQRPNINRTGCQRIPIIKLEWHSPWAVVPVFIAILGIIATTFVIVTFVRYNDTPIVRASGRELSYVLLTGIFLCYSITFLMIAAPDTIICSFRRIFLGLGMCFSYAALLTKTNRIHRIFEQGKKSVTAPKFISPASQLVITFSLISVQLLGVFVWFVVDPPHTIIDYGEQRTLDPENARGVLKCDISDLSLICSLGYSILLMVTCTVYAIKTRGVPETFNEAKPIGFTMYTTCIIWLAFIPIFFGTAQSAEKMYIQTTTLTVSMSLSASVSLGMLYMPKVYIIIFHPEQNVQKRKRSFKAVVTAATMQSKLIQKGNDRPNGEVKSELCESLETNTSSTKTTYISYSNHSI
`CC(=O)c1sc(NC(=O)c2cccc3ccccc23)nc1C` returned a z-score of 0.284.
The result for `CC(=O)Nc1ccc(Oc2sc(C(=O)c3ccccc3)c(N)c2C#N)cc1` reads -0.122.
For the compound `COC(=O)c1cn(CCOc2ccc(C)cc2)c2ccccc12`, the z-score is -0.0474.
On to `O=C(Nc1ccc(N2CCN(C(=O)c3ccco3)CC2)cc1)C(c1ccccc1)c1ccccc1`, for which the z-score was -0.317.
The compound `O=C(NCc1ccco1)c1noc2c1CCCCC2` had a z-score of 0.248.
In turn, `COCCNc1nc2c(c(=O)n(Cc3ccc(OC)cc3)c(=O)n2C)n1C` registered a z-score of -0.299.
`O=C(COc1ccc(Cl)cc1)NC1CCSC1=O` (stereo not given): the z-score was -0.441.
In the case of `CC(=O)Nc1ccc2c(c1)nc(CCN1CCOCC1)n2C`, the z-score was -0.145.
In turn, `COc1ccc(/C=N/NC(=O)c2ccc(C)cc2)cc1CN1CCN(c2ccc(F)cc2)CC1` showed a z-score of -0.0403.
Compound `CCOC(=O)c1c(C)[nH]c(C(=O)C(C)OC(=O)c2cccc(OCc3c(C)noc3C)c2)c1C` (stereo not given) yielded a z-score of -0.76.
Consider `CCOC(=O)c1nn(-c2ccccc2)c(=O)cc1SC(C)C`, for which the z-score is -0.0576.
`O=S(=O)(c1ccc(Br)s1)N1CCC(Cc2ccccc2)CC1`: the z-score is -0.136.
To `FC(F)(F)c1nnc2ccc(NCn3nnc4ccccc43)nn12` belongs -0.786; to `CC(=O)c1cccc(NS(=O)(=O)N(C)C)c1`, -0.0274; to `O=C(c1ccc(Cl)cc1)c1cn[nH]c1-c1ccccc1O`, -0.376.
In turn, `Cc1ccccc1CS(=O)(=O)Cc1ccc(C(=O)NCc2ccccn2)o1` gave a z-score of 0.493.
Turning to `CC(Sc1nc(N2CCCCC2)c2c(c1C#N)CCCC2)C(=O)O` (stereo not given), the z-score was -2.24.
For the compound `Cc1cc(C)nc(NC(=NCc2ccc3c(c2)OCO3)NC(=O)Nc2ccccc2)n1`, the z-score turned out to be 0.0743.
In turn, `CCN(CCO)C(=O)CC(c1ccccc1)c1cc(Br)ccc1O` (stereo not given) yielded a z-score of -0.323.
As to `C=CCOCCN1C(=O)C2C(c3ccccc3)C=CC(c3ccccc3)C2C1=O` (stereo not given), the z-score was 0.0984.
`C=CCSC1=C(C#N)C(c2ccccc2Cl)C(C(=O)c2cccs2)C(O)(C(F)(F)F)N1` (stereo not given) had a z-score of -0.278.
`CCCOC(=O)c1ccc(NC(=O)C2C3CCC(C3)C2C(=O)O)cc1` (stereo not given) yielded a z-score of 0.0507.
The compound `Cc1ccc(-n2cnnn2)c2cccnc12` came in with a z-score of -0.0905.
`Nc1ncnc2c1C1(CCCCC1)Cc1ccccc1-2` came in with a z-score of -0.678.
Turning to `CCOCCn1c(C(C)O)nc2ccccc21` (stereo not given), the z-score was -0.208.
For `O=C(C1CCCN(S(=O)(=O)c2cccc3cccnc23)C1)N1CCN(c2ccc(F)cc2)CC1` (stereo not given), the z-score was -0.522.
Consider `Cc1c(Nc2cc(N3CCCCCC3)c3nonc3c2[N+](=O)[O-])c(=O)n(-c2ccccc2)n1C`, for which the z-score is -0.277.
Turning to `CCCCC[n+]1ccn(-c2nc3ccccc3nc2[N-]S(=O)(=O)c2ccc(C)cc2)c1`, the z-score is -0.249.
As for `CC(NS(=O)(=O)c1ccc(Br)cc1)C(N)=O` (stereo not given), the z-score was 0.444.
In turn, `O=C(O)c1cc2c(o1)CCC/C2=N\O` came in with a z-score of -0.346.
`Cc1ccc2nc(-c3ccc(N4C(=O)CC(N5CCC(C(N)=O)CC5)C4=O)cc3)sc2c1` (stereo not given) returned a z-score of -0.388.
On to `O=C(Nc1cccc(Cl)c1)Nc1ccc(Br)cc1F`, for which the z-score was -0.0559.
The result for `O=C(Nc1cccc2ccccc12)c1nn(C23CC4CC(CC(C4)C2)C3)cc1[N+](=O)[O-]` reads -0.0877.
Turning to `CC1CCC(C(C)C)C(OC(=O)CSc2nc(N)cc(=O)[nH]2)C1` (stereo not given), the z-score is -0.124.
To `CCc1cccc(Oc2nn[nH]n2)c1` belongs -0.415.
In turn, `COc1cccc(NC(=O)Nc2nnc(-c3ccccc3SCc3ccccc3)s2)c1` yielded a z-score of -0.00429.
With `NC(Cc1ccc2nsnc2c1)C(=O)O` (stereo not given), the z-score is 0.179.
The result for `O=C(/C=C/c1ccc(Cl)cc1Cl)NCCN1CCOCC1` reads -0.554; that for `COC(=O)C1CCN(C(=O)COC(=O)CC(NC(C)=O)c2ccccc2)CC1` (stereo not given), -0.208.
`CCc1ccc(NC(=O)C(=O)N/N=C(\C)CC(=O)Nc2ccccn2)cc1` showed a z-score of 0.701.
The result for `O=C(NCc1nc2ccccc2[nH]1)c1ccc(S(=O)(=O)N2CCOCC2)cc1` reads -1.27; that for `CCOC(=O)C(Nc1ccc2ccccc2c1)C(=O)OCC`, -0.724; that for `COc1cccc(-n2c(Cc3cc(=O)[nH]c(=O)[nH]3)nnc2SCC(=O)N2CCCCCC2)c1`, -0.039.
Take `COc1ccc(CCNC(=O)Cc2nn(C)c(=O)c3ccccc23)cc1OC`: the z-score is -0.658.
For `O=C(O)c1ccccc1S(=O)CCO` (stereo not given), the z-score is -0.409.
On to `CN1CCN(c2ccccc2NC(=O)c2ccc(-c3ccccc3)cc2)CC1`, for which the z-score is -0.0195.
To `O=C1OC2(c3ccccc3)C3CCCC2C13` belongs -0.695; to `CCOc1cccc(C(=O)NC2CCCCC2)c1`, -0.294; to `COc1ccc(-n2c(COc3ccc(C)cc3)nnc2SCC(N)=O)cc1`, -1.14.
The result for `COc1cccc(N2C(=O)C3ON(c4ccccc4)C(c4cccs4)C3C2=O)c1` (stereo not given) reads -0.134; that for `CS(=O)(=O)Nc1ccccc1C(=O)Nc1cc(Cl)cc(Cl)c1`, -0.153.
`COc1ccc(C(=O)n2nc(C)cc2C)cc1Br` had a z-score of -0.222.
Turning to `O=C(NC1CCCC1)C(c1ccncc1)N(CC1CCCO1)C(=O)Cn1nnc(-c2cccs2)n1` (stereo not given), the z-score was found to be 0.084.
The result for `CC(C)N(C(=O)COc1ccc(Br)cc1Cl)C(C)C` reads -0.925.
To `O=C(CSc1nc2ccccc2s1)N1CCN(C(=O)c2ccco2)CC1` belongs 0.167; to `CN(C)CCn1c(C(=O)Nc2ccccc2)cc2ccccc21`, -0.549.
As for `COc1cccc(N2CC(C(=O)Nc3nnc(SCc4ccccn4)s3)CC2=O)c1` (stereo not given), the z-score is -0.6.
Take `OC(CNCC(c1ccco1)N1CCCCC1)c1ccccc1` (stereo not given): the z-score stood at 0.549.
In turn, `COc1ccc(-n2nc([N+](=O)[O-])c(=NCc3ccc4c(c3)OCO4)n2O)cc1` displayed a z-score of -0.12.
The compound `O=c1cc(CSc2ccc(Cl)cc2)nc(N2CCOCC2)[nH]1` gave a z-score of -0.725.
The result for `Cc1[nH]nc2c1C1(CCC(c3ccccc3)CC1)C(C#N)=C(N)O2` (stereo not given) reads -0.0577.
`O=C(c1cccs1)c1no[n+]([O-])c1C(=O)c1cccs1` showed a z-score of -0.851.
On to `Cc1occc1-c1nnc(SCC(=O)c2ccc(Cl)cc2)n1CC1CCCO1` (stereo not given), for which the z-score was -0.0382.
As to `Cc1ccc(C)c(N(CC(=O)NC2CCCC2)C(=O)c2cc3cc4cc(C)ccc4nc3s2)c1`, the z-score is 0.332.
`CCN(CC)c1ncnc2c1sc1nc(N3CCOCC3)c3c(c12)CCC3` showed a z-score of -0.163.
The compound `CCOC(=O)c1[nH]c(C)c(C(=O)O)c1C` gave a z-score of -0.0615.
`CCOC(=O)c1ccc(NC(=S)N2CCN(Cc3ccccc3)CC2)cc1`: the z-score was -0.2.
`COc1cc(NCCCCCCCN)c2ncccc2c1` showed a z-score of 2.78.
Take `Cc1ccc(O)c(N=NC2=C(O)CC(C)(C)CC2=O)c1`: the z-score came to 0.0252.
The result for `O=C(O)C1CC(c2ccc(F)cc2)=NO1` (stereo not given) reads -0.205; that for `CCCCc1cc(=O)oc2cc(OCc3cc(OC)c(OC)c(OC)c3)c(Cl)cc12`, -0.0451.
The result for `CC(=O)c1c(N)c(C#N)c(C)n1-c1ccc(Br)cc1` reads -0.725; that for `CCN1C(=O)CC(N2CCN(CC(=O)NC(C)C)CC2)C1=O` (stereo not given), -0.0646; that for `C=CCn1c(CCNC(=O)c2ccccc2F)nnc1SCC(=O)Nc1nc2ccccc2s1`, -0.292.
Compound `CC(=O)NN1C(=O)c2ccc(Oc3cccc([N+](=O)[O-])c3)cc2C1=O` came in with a z-score of 0.204.
With `COCCOC(=O)/C(=C/c1ccc(OC(=O)c2ccccc2)cc1)C(C)=O`, the z-score was found to be 0.763.
The compound `O=C(CCSCCc1ccccn1)Nc1cc(F)ccc1F` displayed a z-score of 0.83.
As to `COc1cccc2cc(C(=O)N3CCN(C/C=C/c4ccccc4)CC3)c(=O)oc12`, the z-score is -0.766.
The result for `COc1cc([N+](=O)[O-])ccc1NC(=O)CCCOc1cc(C)ccc1C` reads -0.277; that for `Cc1cc2cc(CCNC(=O)C(C)C)c(=O)[nH]c2cc1C`, -0.313.
In turn, `Cc1nn(-c2ccccc2)c(=S)c2ccccc12` displayed a z-score of 0.00587.
Turning to `CCCOC(=O)/C(=C\c1ccc([N+](=O)[O-])o1)NC(=O)c1ccccc1`, the z-score was -0.939.
`CCCCOc1ccc(S(=O)(=O)Nc2cc(OC)ccc2OC)cc1` showed a z-score of -1.31.
Turning to `Cc1ccc(C)c(N2CCN(C(=O)C3CCCCN3S(=O)(=O)c3ccc(F)cc3)CC2)c1` (stereo not given), the z-score is -0.219.
As to `COc1cc(CNc2nc3ccccc3n2C)cc(OC)c1OC`, the z-score is -0.245.
`COc1ccc(C2(O)CCN(Cc3nnnn3Cc3ccc(F)cc3)CC2)cc1` gave a z-score of -0.521.
In turn, `COc1ccc(C2CC(c3ccccc3OC(C)=O)=NN2C(=O)/C=C/c2ccccc2)cc1OC` (stereo not given) showed a z-score of -0.253.
In the case of `O=C(CN1C(=O)C2C3c4ccccc4C(c4ccccc43)C2C1=O)N1CCOCC1` (stereo not given), the z-score was -0.00306.
For `O=C(NCCC(c1ccccc1)c1ccccc1)c1ccc(Br)o1`, the z-score was determined as 1.8.
Consider `CCOc1ccc(C(=O)Cc2cc(OC)c(OC)cc2[N+](=O)[O-])cc1`, for which the z-score is -0.0207.
The result for `Cc1nc(C)c(CCNC(=O)c2ccccc2)s1` reads 0.81; that for `CC1=CCC(C(=O)O)C(C(=O)Nc2nc3ccc(S(C)(=O)=O)cc3s2)C1` (stereo not given), 0.387.
In turn, `COc1ccc(N2CCN(CCCNS(=O)(=O)c3ccc4c(c3)oc(=O)n4C)CC2)cc1` came in with a z-score of -0.0748.
The result for `NC(=O)C[C@@H]1N[C@]2(C(=O)Nc3ccccc32)[C@@H]2C(=O)N(c3cc(C(F)(F)F)ccc3Cl)C(=O)[C@H]12` reads -0.363.
The result for `N#Cc1cc2c(nc1SCC1COc3ccccc3O1)CCC2` (stereo not given) reads 0.113.
Take `CCn1c(-c2csc3ccccc23)n[nH]c1=S`: the z-score is -0.273.
To `CCNC(=S)Nc1ccccc1-c1ccccc1` belongs 0.237; to `Cc1ccc(NC(=O)CN(c2ccccc2)S(=O)(=O)N(C)C)cc1C`, -0.104.
As for `CCSc1nnc(NC(=O)c2cccnc2Cl)s1`, the z-score was -0.234.
In turn, `Cc1cccc(Nc2nnc(SCC(=O)Nc3ncc(C(F)(F)F)cc3Cl)s2)c1C` gave a z-score of -0.195.
To `CC1=C(C(=O)OC(C)C)C(c2ccc(C)o2)NC(=O)N1` (stereo not given) belongs -0.0986; to `COc1cccc(C(=O)NNC(=O)Cc2ccc(Cl)cc2)c1`, -0.153.
`CCOC(=O)C=Nc1c(N)n(C)c(=O)n(C)c1=O`: the z-score was 2.44.
The result for `COc1ccc(/C=N/Nc2ccc(C(F)(F)F)cc2[N+](=O)[O-])cc1O` reads -0.17; that for `O=C(c1ccc(Cl)nc1)N1CCc2ccccc2C1`, -0.281.
In the case of `Cc1ccsc1/C=N/NC(=O)c1sccc1C`, the z-score was active: 5.91.
The result for `COC(=O)c1nn(-c2ccccc2)nc1-c1nn(-c2ccccc2)nc1C(=O)OC` reads -0.273; that for `COc1ccc(NC(=O)C(C)Oc2ccc(/C(C)=N\O)cc2)cc1` (stereo not given), 0.997.
In turn, `O=C(c1ccccc1)N(NC(=O)C(O)(c1ccccc1)c1ccccc1)c1cccc(F)c1` gave a z-score of -0.335.
As for `Cc1cccc(N2CCN(C(=O)Cn3cccc3C(=O)c3ccccc3)CC2)c1C`, the z-score is -0.349.
